No constants are given. Whether binding was seen depends on the method and setting. Some results given as binding are weak or reduced against the parent protein; the word gives no strength. For some assays here: Where a sequence is shown, tags or fusion partners need not be part of it.

Sequences of proteins named here, by UniProt entry; tags and fusion partners are left off. A change or cut given only in a name is not applied to a line headed by its entry. Residues count along the entry.
UniProt P37023, residues 22-118: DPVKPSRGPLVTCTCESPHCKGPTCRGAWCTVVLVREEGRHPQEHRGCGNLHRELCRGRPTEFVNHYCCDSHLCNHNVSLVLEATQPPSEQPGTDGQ
UniProt P27037: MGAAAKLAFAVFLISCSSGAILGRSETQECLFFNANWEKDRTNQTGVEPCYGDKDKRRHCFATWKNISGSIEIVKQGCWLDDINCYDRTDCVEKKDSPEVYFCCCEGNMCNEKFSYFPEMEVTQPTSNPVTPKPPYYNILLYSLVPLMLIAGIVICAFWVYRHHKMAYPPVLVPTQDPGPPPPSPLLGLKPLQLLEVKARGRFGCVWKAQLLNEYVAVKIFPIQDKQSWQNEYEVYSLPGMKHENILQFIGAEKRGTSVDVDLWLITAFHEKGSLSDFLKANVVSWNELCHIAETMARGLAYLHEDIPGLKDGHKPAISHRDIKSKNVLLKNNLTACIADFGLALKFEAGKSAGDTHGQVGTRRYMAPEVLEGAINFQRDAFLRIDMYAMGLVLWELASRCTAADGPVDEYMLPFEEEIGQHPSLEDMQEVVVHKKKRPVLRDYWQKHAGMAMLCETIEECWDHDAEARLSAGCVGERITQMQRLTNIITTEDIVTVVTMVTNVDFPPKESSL
UniProt P36896, residues 24-126: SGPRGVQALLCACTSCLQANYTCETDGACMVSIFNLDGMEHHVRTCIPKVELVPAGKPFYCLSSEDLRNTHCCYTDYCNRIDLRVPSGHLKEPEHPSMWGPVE
UniProt P36894, residues 24-152: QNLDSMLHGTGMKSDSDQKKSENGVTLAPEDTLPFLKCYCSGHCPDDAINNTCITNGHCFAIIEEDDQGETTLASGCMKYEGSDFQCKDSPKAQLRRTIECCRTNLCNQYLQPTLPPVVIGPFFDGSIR

Common to all, as to assay: SPR; BIAcore 3000, 25°C; ECD-Fc proteins (in 10 mM Na-acetate, pH 4.0) captured on CM5 chip to ~1,000 response units; MB109 injected in 2-fold dilutions from 20 to 0.3 nM in 10 mM HEPES pH 7.4, 150 mM NaCl, 3.4 mM EDTA, 0.005% Tween-20; global 1:1 Langmuir binding with mass transfer model; both purified
On the technique in general: SPR reads the build-up and loss of mass on a sensor chip optically.

Assay [1] addresses ALK1 extracellular domain, C-terminal Fc-tagged chimera (UniProt P37023).
Assay [2] concerns the target T1, ALK7 extracellular domain, C-terminal Fc-tagged chimera (UniProt Q8NER5).
T1 sequence: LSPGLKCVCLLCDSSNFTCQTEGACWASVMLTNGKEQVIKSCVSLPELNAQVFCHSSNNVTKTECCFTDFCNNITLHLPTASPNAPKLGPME

In assay [3] the target is ActRIIa extracellular domain, C-terminal Fc-tagged chimera (UniProt P27037).
The target in assay [4] is T2, ActRIIb extracellular domain, C-terminal Fc-tagged chimera (UniProt Q13705).
T2 sequence: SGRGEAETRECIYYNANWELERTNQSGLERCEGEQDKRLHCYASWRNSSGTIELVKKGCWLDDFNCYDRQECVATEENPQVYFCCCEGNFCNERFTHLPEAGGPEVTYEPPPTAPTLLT

For assay [5], the target named is T3, ActRIa (ALK2) extracellular domain, C-terminal Fc-tagged chimera (UniProt Q04771).
T3 sequence: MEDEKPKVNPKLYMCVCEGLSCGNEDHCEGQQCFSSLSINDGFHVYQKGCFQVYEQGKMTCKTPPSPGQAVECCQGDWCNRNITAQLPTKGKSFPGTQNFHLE

The target of assay [6] is ActRIb (ALK4) extracellular domain, C-terminal Fc-tagged chimera (UniProt P36896).
Assay [7] concerns the target T4, BMPRII extracellular domain, C-terminal Fc-tagged chimera (UniProt Q13873).
T4 sequence: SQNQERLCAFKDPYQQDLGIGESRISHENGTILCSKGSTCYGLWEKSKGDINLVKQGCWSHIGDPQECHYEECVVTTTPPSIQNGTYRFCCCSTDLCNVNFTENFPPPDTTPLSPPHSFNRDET

The target of assay [8] is BMPRIa (ALK3) extracellular domain, C-terminal Fc-tagged chimera (UniProt P36894).
In assay [9] the target is T5, BMPRIb (ALK6) extracellular domain, C-terminal Fc-tagged chimera (UniProt O00238).
T5 sequence: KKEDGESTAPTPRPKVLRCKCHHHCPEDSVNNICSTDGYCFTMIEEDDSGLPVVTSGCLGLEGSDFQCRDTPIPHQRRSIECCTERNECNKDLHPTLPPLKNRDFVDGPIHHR

Assay [10] addresses T6, MISRII extracellular domain, C-terminal Fc-tagged chimera (UniProt Q16671).
T6 sequence: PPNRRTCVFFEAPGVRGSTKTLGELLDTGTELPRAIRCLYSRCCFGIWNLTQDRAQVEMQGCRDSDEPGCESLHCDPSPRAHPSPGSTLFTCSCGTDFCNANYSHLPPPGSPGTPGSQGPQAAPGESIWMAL

Assay [11] concerns the target T7, TGFβRI (ALK5) extracellular domain, C-terminal Fc-tagged chimera (UniProt P36897).
T7 sequence: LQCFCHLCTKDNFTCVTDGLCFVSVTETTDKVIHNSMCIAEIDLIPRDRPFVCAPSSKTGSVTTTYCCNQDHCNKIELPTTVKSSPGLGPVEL

B1: MB109 (E. coli-derived mature domain of human bone morphogenetic protein-9, refolded functional dimer) (ligand, UniProt Q9UK05 320-429)
chain: MSAGAGSHCQKTSLRVNFEDIGWDSWIIAPKEYEAYECKGGCFFPLADDVTPTKHAIVQTLVHLKFPTKVGKACCVPTKLSPISVLYKDDMGVPTLKYHYEGMSVAECGCR
Take B1: the binding entry in assay [1] is reported as “binds”; in assay [2] it was “no binding (tested: 20 nM (tested from 20 to 0.3 nM))”; in assay [3], “binds weakly”; in [4] it was “binds”; in [5], “no binding (tested: 20 nM (tested from 20 to 0.3 nM))”; in [6], “no binding (tested: 20 nM (tested from 20 to 0.3 nM))”. The binding result is recorded as “binds” in assay [7]; “no binding (tested: 20 nM (tested from 20 to 0.3 nM))” in [8]; “no binding (tested: 20 nM (tested from 20 to 0.3 nM))” in [9]; “no binding (tested: 20 nM (tested from 20 to 0.3 nM))” in assay [10]; “no binding (tested: 20 nM (tested from 20 to 0.3 nM))” in assay [11].

The values above are taken from paper PMC3936849.
